Measurements reported in the supplement of paper PMC11417369.
The list shows a part of the results.

tested on: PfAP2-HC AP2 domain (GST-tagged); assay: gcPBM binding intensity (ln(normalized median fluorescence intensity)); higher = stronger DNA binding
Outline: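 For binding intensity, the highest Masliner-normalised natural-log median intensity across replicate spots of either probe orientation was taken. Protein bound to the array was stained with Alexa488 anti-GST antibody and scanned at 488 nm. The protein, GST-tagged P. falciparum DNA-binding domains from E. coli at about 25 μg on average, had been applied for 1 h to an Agilent 4 × 180k array of primer-extended double-stranded 36-bp intergenic genomic probes and negative controls.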

Sequence | gcPBM binding intensity (ln)
AGAGAGATGACAAAAAGATGAATAACGTTAAGGGAT [XGTACX_negctrl_site120] | 10.2
ATGGAAATATATACATGTACATAAATATATATATAT [XGTACX_site8391] | 9.77
AGTGGACTTTTTTTTTTTTTTTTTTTTTTTTTATTA [CACACA_negctrl_site547] | 9.44
ATGTTTTGCATATATTATATATTTATTTATTTTTTT [CACACA_negctrl_site729] | 9.79
AGTAGTCTGGAGAAGAGTACATAGTATCTGGTAACC [XGTACX_site2043] | 9.68
GTATGGCGTATCATATGTACTAAAAAAAAATAAAAA [XGTACX_site5101] | 9.51
AATAAAAAAATGTCACGTACTTATTTTATTAAACCT [XGTACX_site3031] | 9.53
TATTTATCATCATATTGTACATTATATATATAAAAT [XGTACX_site6675] | 9.39
AAGTATGTCGACTGTTGTACTTTTATCATTTATTAT [XGTACX_site1129] | 9.86
ATATACTATGATAATACATGCGATAATACATTTTTA [TGCATGCA_site387] | 9.66
ATCTGTCGACAGGACAGTACACAGTAGCCAGTAACT [XGTACX_site2001] | 9.63
TTATATGCTCAATGTTGTACATGTAGATATATATAT [XGTACX_site8211] | 9.61
ATATATATATATAGTGCACACATATAAAATATATAT [CACACA_site8884] | 9.88
AATATTTATGTGAAGACACACAACTGTTTATTATAT [CACACA_site3447] | 9.77
ATATGTAAAACTTCAAAAAAATATATTTTATGACGA [GTGCAC_negctrl_site324] | 9.72
ATCCTACTATGTTATACACACAATTACTTTTTTCTC [CACACA_site3712] | 10.1
TTACAACAGAATGGTATTTTTTTATTTTAAAGAAAA [TGCATGCA_negctrl_site230] | 9.33
AGATACTTTCCTCAAACACACAAAACTATACAACAA [CACACA_site1474] | 10.1
ATTCAGTTCTATAATACACACATATATTGACATTAT [CACACA_site7309] | 9.94
ATATTCTTCTAAAGGCGTACATCTACATTTATGAAA [XGTACX_site2145] | 9.32
GTTAGCTCGTTCGGAGCACACACATATATATATATA [CACACA_site8595] | 9.84
TTTTTTTTTTTTTGGTGTACTTTTTTTAGAACGCAA [XGTACX_site4207] | 9.33

Sequence | gcPBM binding intensity (ln)
AAAATTTATATAGGCACACAAATAAATTAATACATA [CACACA_site1418] | 9.85
AAAAATGAAAGGTGTACACATACAAACATAGAAAGA [CACACA_site5020] | 10.2
TTTTTTCTTTCTTTCAAACACACATTAATTTTATTC [CACACA_site2733] | 9.75
ATATTAGAAATATGAATAGAAAGAATATATAAGTAT [CACACA_negctrl_site682] | 9.91
TGTTCAAATTTATTCGATCTTTATATTTAATAAAAC [CACACA_negctrl_site781] | 9.39
ATTCTACACCCACATACACACATATATATATATATA [CACACA_site3426] | 10.2
AGTTCTTCGTACCAAAAAACGGCACGCATATGTATA [TGCATGCA_negctrl_site469] | 9.5
TGTATTCATACATGCACACGTACATATTTAAATATA [CACACA_site3926] | 9.71
AATTATATTCTATTCACACATATTCCAACCTCTTTT [CACACA_site4670] | 9.89
TTTGATGGTACACGTACACACCTTGCAAATATTTTT [CACACA_site4645] | 9.89
TGAAAGAACCTGATTACACACATAAATTATATATAT [CACACA_site26] | 9.83
ATGAATATAATAAAGAAACACACGTATACATAATGA [CACACA_site1355] | 10.1
TGTATGTTGTAAAATTGTACATATATATTATATTTA [XGTACX_site4883] | 9.61
ATATATAAAATATACACACATACTGTTCATTTAAAG [CACACA_site4169] | 9.74
AAAAAAAATTATATATGTACTTATTAATCCTTATAT [XGTACX_site1389] | 9.57
TATTTCAAAAAAAAAAAAAATAAAAAACAACAACAA [CACACA_negctrl_site893] | 9.56
ATTTATATATCGCCCACACACATGTGATTATTTATA [CACACA_site6905] | 10.1
TACTACTATCTATATTGTACAAAAGGTGCCTACAAA [XGTACX_site4267] | 9.58
TTCATTTATTTACTTACACACTTTATATATGTGGTT [CACACA_site4901] | 9.9
TCTATTCAAAATAAAAGTACTAGCATGTGAATTGTT [XGTACX_site5530] | 9.49
TACAAGTTTTTAAAGTGTACCAAAAAAAAAGAATAA [XGTACX_site979] | 9.73
TATCTCTTATTTTATTGTACTTAACTATGCTATAAT [XGTACX_site4904] | 9.7

Sequence | gcPBM binding intensity (ln)
AAAAATAAAAAAATGACACACATATATATATATATA [CACACA_site2307] | 10.2
TAAGTATAATATTGATGTACATATAATAACTTGTAT [XGTACX_site417] | 9.88
AAGAGAAATTATAACATGTGAAATGTATTATATATA [TGCATGCA_negctrl_site254] | 9.73
ATTTATATATAATATACACACATATAATCCACATAT [CACACA_site699] | 10.3
AAGGGAAAATTAAGGTTGCACTAAAAATATATCTTT [GTGCAC_site9608] | 9.51
ATGAACATACAATATACACACATATATATTTATATT [CACACA_site4609] | 10.3
TAGTTAACAAATAATGCACACAAATGGATAAAATTA [CACACA_site9240] | 9.92
ATTCAAATTGTAGAAACACACAAAAACTTAACATAT [CACACA_site2617] | 9.93
CATATGATATGTTATACACACACGTATATATGAATT [CACACA_site3446] | 9.92
CTTTGTGTTAAAAGTAGTACACCAAAAATATGACTT [XGTACX_site622] | 9.55
AGATACGATTATATGCGTTCAATATACCAAATAATT [TGCATGCA_negctrl_site501] | 9.55
TTTTTCATCATATGTTGTACAATGTGTAGATATATT [XGTACX_site3195] | 9.71
CACGCGCCCGGACACACACACACACCCATATATATA [CACACA_site5251] | 11.3
GAATAAATATTAAATGTGCACTTGAATAGATGTAAA | 9.79
TATTTGTAATATTATACACACATTATATATTACAAA [CACACA_site5804] | 9.69
CGTAGCCACACTAACACACACAAATATACACAATCA [CACACA_site7379] | 10.7
ATTTAAATAACGTATGTATATACATATATATATATA [TGCATGCA_negctrl_site207] | 9.76
TATTTTGTATATAAATGTACAAGTATATATTTTTTC [XGTACX_site7855] | 9.5
GATAAATGTATATATGCATGCACATATATTTATACA [TGCATGCA_site748] | 9.75
TGCATTATTTACAAGGTGCGTTACAAATGTGTAACA [GTGCAC_site9442] | 9.48
GCTTTAATCTGAAAGTGTACAGATAATATATTTATA [XGTACX_site2462] | 9.46
TATGAATATTTGTATACATGCATATAGAAATCATAT [TGCATGCA_site533] | 9.6

Sequence | gcPBM binding intensity (ln)
ATATATTATATATATATATATATATATTATTATTGT [TGCATGCA_negctrl_site286] | 9.6
TACTATAACGCACATACACACAAAAAAAAAAAAAAA [CACACA_site8073] | 10
TATATATATATTTTTGCATGTAATTTTTATGAGGAC [TGCATGCA_site884] | 9.57
ATATGGTGATATAGGTGTACATTTTGATGCTTATTT [XGTACX_site4283] | 9.83
TTATACATGAAATATTGTACACATATATATATATAT [XGTACX_site4378] | 9.76
ATATATAGAATGTGTACACACATATGTATTTATATA [CACACA_site810] | 10.3
ATTTTTTATGGACAAAAGACCTCTGATGTAAATATA [CACACA_negctrl_site1081] | 9.37
TTTTTTTTTTTCTTAGTGCGCGTGAAAAATATAAAA | 9.31
AATTAGATTATGCACACACACTTAAAAATAATAAAT [CACACA_site7015] | 10.7
TTACTCAAACAAACAAAAAAAAAAAAAAAAAAAAAA [TGCATGCA_negctrl_site457] | 8.89
AGTATACATATATATACACACACACCGATATATATA [CACACA_site8357] | 10.4
TAAAAAAAATAAACGTGTACATAAAAATGAATATGT [XGTACX_site119] | 9.86
TTAATATATTAAATCTTACACACTAAAAAATATGTA [CACACA_site307] | 9.46
GAAAATATTATAGCACCACACACTTATTTTATATAT [CACACA_site2265] | 10.2
AACGTTAAAAAAAAAATATATATAAGGAGAAAGCAC [XGTACX_negctrl_site338] | 9.86
TATGCGTCTTGCCTTGCACACTTTTATGAAAAAAAA [CACACA_site5174] | 9.63
TAATTCGCAAAAGAAAGAAATTAAGAAAAAGAAAAA [XGTACX_negctrl_site614] | 9.17
TTCAATAGTAAGTATACACACATATATATATATAAA [CACACA_site2687] | 9.91
TTTCTTTTTTTTTTTTCATTGATCCATTTATGATTA [TGCATGCA_negctrl_site225] | 9.48
TTATAGGTTCTATACATATATTTATATATGTACAGA [CACACA_negctrl_site60] | 9.38
TTTTTAAAAATATACACACACAGATATTATAGATAT [CACACA_site6511] | 10.1
